# Hit rate of the full screen: of about 360,000 compounds, about 16,000 (4.4%) were called active. The shares of active, inactive and inconclusive entries below differ from those in the screen. Calls follow the shape of the dose curve; as a rule, active = well fitted inhibition curve with a large enough effect; inconclusive = small, poorly fitted or top-dose-only effect; inactive = no such curve, though single readings can be large or run the other way. Where the call is inconclusive, the potency comes from a doubtful curve fit.
# Target: Bromodomain adjacent to zinc finger domain protein 2B (Homo sapiens) (UniProt Q9UIF8)
# Sequence of UniProt Q9UIF8 (Q9UIF8 whole entry, looked up, the tested form may be a part): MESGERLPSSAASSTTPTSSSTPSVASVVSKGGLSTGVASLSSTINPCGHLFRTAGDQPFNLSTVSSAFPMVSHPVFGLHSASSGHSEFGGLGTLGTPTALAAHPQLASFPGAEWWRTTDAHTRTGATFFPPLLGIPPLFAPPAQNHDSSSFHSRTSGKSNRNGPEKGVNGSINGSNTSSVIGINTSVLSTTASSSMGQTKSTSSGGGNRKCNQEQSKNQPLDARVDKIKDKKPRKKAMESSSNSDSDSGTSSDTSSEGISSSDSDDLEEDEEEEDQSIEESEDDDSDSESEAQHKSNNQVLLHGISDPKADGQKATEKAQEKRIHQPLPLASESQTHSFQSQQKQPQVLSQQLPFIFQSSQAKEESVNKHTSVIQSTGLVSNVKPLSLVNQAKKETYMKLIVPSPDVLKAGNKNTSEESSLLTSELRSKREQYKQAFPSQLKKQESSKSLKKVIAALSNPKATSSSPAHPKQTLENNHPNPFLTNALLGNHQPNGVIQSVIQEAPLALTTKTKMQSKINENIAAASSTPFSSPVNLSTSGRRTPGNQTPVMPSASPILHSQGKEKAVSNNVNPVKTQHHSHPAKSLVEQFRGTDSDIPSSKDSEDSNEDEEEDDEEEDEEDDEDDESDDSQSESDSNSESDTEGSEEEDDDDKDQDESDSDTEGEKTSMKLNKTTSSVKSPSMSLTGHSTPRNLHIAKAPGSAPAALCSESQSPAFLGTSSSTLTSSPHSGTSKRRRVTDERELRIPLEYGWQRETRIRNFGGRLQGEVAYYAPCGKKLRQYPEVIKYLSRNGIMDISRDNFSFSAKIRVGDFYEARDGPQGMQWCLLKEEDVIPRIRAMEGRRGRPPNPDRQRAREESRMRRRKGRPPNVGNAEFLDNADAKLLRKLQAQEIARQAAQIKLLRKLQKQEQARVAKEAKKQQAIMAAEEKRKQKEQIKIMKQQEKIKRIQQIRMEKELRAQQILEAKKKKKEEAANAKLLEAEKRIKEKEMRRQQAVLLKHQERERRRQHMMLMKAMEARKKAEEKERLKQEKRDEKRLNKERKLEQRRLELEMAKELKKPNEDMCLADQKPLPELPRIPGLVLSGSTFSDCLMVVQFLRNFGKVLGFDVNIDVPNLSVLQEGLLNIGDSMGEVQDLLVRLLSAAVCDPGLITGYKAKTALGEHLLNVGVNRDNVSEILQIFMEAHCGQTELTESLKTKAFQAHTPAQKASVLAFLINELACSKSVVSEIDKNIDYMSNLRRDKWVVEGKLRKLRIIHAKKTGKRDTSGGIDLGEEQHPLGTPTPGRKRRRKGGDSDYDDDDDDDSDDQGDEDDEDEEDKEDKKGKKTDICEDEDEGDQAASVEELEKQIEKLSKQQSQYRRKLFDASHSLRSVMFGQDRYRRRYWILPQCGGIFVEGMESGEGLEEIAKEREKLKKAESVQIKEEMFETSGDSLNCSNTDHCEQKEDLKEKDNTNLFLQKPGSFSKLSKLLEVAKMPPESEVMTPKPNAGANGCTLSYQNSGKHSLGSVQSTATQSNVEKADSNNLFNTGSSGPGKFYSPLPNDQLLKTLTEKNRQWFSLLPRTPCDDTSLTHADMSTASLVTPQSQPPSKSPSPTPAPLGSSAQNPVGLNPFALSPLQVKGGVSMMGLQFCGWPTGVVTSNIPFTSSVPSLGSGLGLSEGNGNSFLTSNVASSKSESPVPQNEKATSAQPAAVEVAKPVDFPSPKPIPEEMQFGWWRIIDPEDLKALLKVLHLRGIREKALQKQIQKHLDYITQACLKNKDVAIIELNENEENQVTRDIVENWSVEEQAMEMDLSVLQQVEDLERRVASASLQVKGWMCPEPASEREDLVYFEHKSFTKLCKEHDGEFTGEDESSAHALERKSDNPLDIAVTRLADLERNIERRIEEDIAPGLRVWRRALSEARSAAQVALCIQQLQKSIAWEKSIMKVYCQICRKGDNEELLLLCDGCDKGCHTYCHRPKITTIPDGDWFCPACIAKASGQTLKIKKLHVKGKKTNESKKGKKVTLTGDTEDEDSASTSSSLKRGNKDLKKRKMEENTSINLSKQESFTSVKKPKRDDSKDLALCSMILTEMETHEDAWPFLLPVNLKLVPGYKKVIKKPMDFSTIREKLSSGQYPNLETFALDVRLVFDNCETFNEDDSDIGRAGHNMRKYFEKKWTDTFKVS
# Experiment: qHTS Assay for Inhibitors of BAZ2B; also: nearly all actives have a fitted effect of over 60% in size
# Conditions: AlphaScreen BAZ2B-H3K14Ac peptide displacement; activity change, negative = inhibition: at 114 µM (top of the series) unless noted
# Summary of the method: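 BAZ2B 50 nM plus b-H3(5-23)K14Ac 50 nM, PBS pH 7.4/0.01% Tween-20, 30 min RT; compound added (max 110 uM), 30 min RT; streptavidin donor/Ni-chelate acceptor beads 10 ug/mL final, 20 min dark; AlphaScreen read.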
# % is scaled to controls: 0 for no effect and ±100 for the full control effect; potency is read from the fitted curve at half-maximal effect; tags tell the direction and shape of the fitted curve.
SMILES,Potency,"activity change, negative = inhibition"
NNc1nccc(Nc2ccccc2C(=O)O)n1,active: 25.1 µM,
Cc1nc(N2CCN(Cc3ccccc3)CC2)nc2c1C(=O)CC(C)C2 (stereo not given),,inactive: 7.82%
CCN1CCN(C(=S)NC(=O)c2cccs2)CC1,"inconclusive: 79.4 µM [inhibitor, single point]",
O=C(CCNC(=O)c1ccc(Br)cc1)Nc1nc2ccccc2[nH]1,"inconclusive: 89.1 µM [inhibitor, single point]",
CCN(CC)c1ccc(/C=C(\C#N)C(N)=S)cc1,active: 12.6 µM,
Cc1cc(NS(=O)(=O)c2ccc(NC(=O)CSc3nc4sc(C)c(C)c4c(=O)[nH]3)cc2)no1,"inconclusive: 50.1 µM [inhibitor, partial curve]",
CC(C)N(Cc1ccccc1)C(=S)Nc1cccnc1,,inactive: -7.01%
O=C(OCc1nc2ccccc2[n+]([O-])c1C(=O)c1ccccc1)c1cccs1,"inconclusive: 79.4 µM [inhibitor, single point]",
CCCS(=O)(=O)c1cn2cccc(N)c2c1S(=O)(=O)CCC,"inconclusive: 89.1 µM [inhibitor, single point]",
CCOC(=O)c1c(CNCCN(CC)CC)n(C)c2cc(Br)c(OC)cc12,"inconclusive: 11.2 µM [inhibitor, full curve]",
CC1CN(S(=O)(=O)c2cccc(-c3csc(-c4ccccc4)n3)c2)CC(C)O1 (stereo not given),,inactive: -0.401%
CC1OC(OC2C(OC3C(O[C@H]4CC[C@]5(C)C6C=C[C@]78OC[C@@]9(CC[C@@H](C)[C@H](C)C97)[C@H](O)C[C@@]8(C)[C@]6(C)CC[C@H]5C4(C)C)OC(C)C(O)C3O)OC(CO)C(O)C2O)C(O)C(O)C1O (stereo not given in full),"inconclusive: 79.4 µM [inhibitor, single point]",
Cn1c(CCNC(=O)c2ccco2)nc2cc(NC(=O)c3ccccc3)ccc21,"inconclusive: 35.5 µM [inhibitor, full curve, poor fit]",
COc1ccc(S(=O)(=O)N2CCCCCC2)cc1C(=O)N1CCCCC1,"inconclusive: 35.5 µM [inhibitor, partial curve]",
COc1ccc(CNC(=O)c2cnc3sc(N4CCOCC4)nn3c2=O)cc1,,inactive: -10.4%
COc1cc(OC)c(NC(=O)N2CCSc3ccccc32)cc1Cl,"inconclusive: 70.8 µM [inhibitor, single point]",
O=C(/C=C/c1ccc(-c2ccccc2)o1)c1ccccc1,active: 35.5 µM,
O=C(N/N=C/C(Cl)=C/c1ccc([N+](=O)[O-])cc1)C(=O)Nc1ccccc1C(=O)O,"inconclusive: 50.1 µM [inhibitor, partial curve]",
COc1ccccc1-n1cnnc1SC(C)C(=O)NCC1CCCO1 (stereo not given),,inactive: 4.04%
CCOc1ccc(NC(=O)C(CC)n2c(=O)c(-c3ccccc3NC(C)=O)nc3ccccc32)cc1 (stereo not given),,inactive: -26.5%
COc1ccccc1OCCSc1nc(-c2ccc(C(C)(C)C)cc2)nc2cc(=O)[nH]n12,"inconclusive: 79.4 µM [inhibitor, single point]",
CCCSc1nnc(CNS(=O)(=O)c2ccc(C)cc2)n1C,,inactive: 11.5%
Nc1nnc(SCC(=O)Nc2ccc(Cl)cc2)s1,,inactive: -8.67%

SMILES,Potency,"activity change, negative = inhibition"
CC(=O)C1C(=O)C=C(c2ccco2)CC1c1ccccc1 (stereo not given),"inconclusive: 89.1 µM [inhibitor, single point]",
Cc1cc(C)c2c(=O)[nH]c(SCc3ccc([N+](=O)[O-])cc3)nc2n1,,inactive: -1.4%
COC(=O)N/N=C/c1cn(CCOc2ccccc2)c2ccccc12,"inconclusive: 70.8 µM [inhibitor, partial curve]",
CCOc1ccccc1NC(=O)Cn1c(=O)n(CCC(=O)NCc2ccc3c(c2)OCO3)c(=O)c2ccccc21,"inconclusive: 100 µM [inhibitor, single point]",
O=C(COC(=O)/C=C/c1ccco1)Nc1ccc(F)cc1Cl,"inconclusive: 79.4 µM [inhibitor, partial curve]",
Nc1c(C(=O)NCC2CCCO2)sc2nc3c(c(-c4ccco4)c12)CC/C3=C\c1ccco1 (stereo not given),active: 8.91 µM,
Cc1nc(SC2C=CS(=O)(=O)C2)n[nH]1 (stereo not given),"inconclusive: 89.1 µM [inhibitor, single point]",
Cc1cc(C)n2nc(CC(=O)NNC(=O)c3ccc(N(C)C)cc3)nc2n1,"inconclusive: 89.1 µM [inhibitor, single point]",
Clc1ccccc1CSc1nnc([C@@H]2CCCN2)o1,"inconclusive: 89.1 µM [inhibitor, single point]",
CC1(C)NC(=O)N(CCCCOc2ccc(Cl)cc2C=O)C1=O,"inconclusive: 89.1 µM [inhibitor, single point]",
CCOC(=O)c1c(C)[nH]c(C)c1S(=O)(=O)N1CCC(C(=O)NCc2ccc(OC)cc2)CC1,,inactive: 3.18%
Cc1nn(-c2nnc(NC3CCCCC3)nn2)c(C)c1Br,active: 14.1 µM,
CCOc1ccc(CN2CCCC(N3CCN(c4ccc(OC)cc4)CC3)C2)cc1 (stereo not given),"inconclusive: 79.4 µM [inhibitor, single point]",
COc1ccc(CNS(=O)(=O)c2ccc3c(c2)N(C)CCO3)cc1,"inconclusive: 79.4 µM [inhibitor, single point]",
CCOc1cc(CNc2ccc(O)cc2)cc(Cl)c1OCc1ccccc1,active: 28.2 µM,
O=C(Cn1c(O)c(/C=C2\C=Nc3ccccc32)sc1=O)N1CCOCC1,"inconclusive: 79.4 µM [inhibitor, partial curve]",
COc1ccc(-n2c(=S)[nH]c3[nH]ncc3c2=O)cc1,"inconclusive: 89.1 µM [inhibitor, single point]",
O=C(NCCc1ccccc1)C(=O)c1c(-c2ccccc2)cc2ccccn12,"inconclusive: 70.8 µM [inhibitor, single point]",
Nc1nc(CSc2ncccn2)nc(Nc2ccccc2)n1,"inconclusive: 100 µM [inhibitor, single point]",
COc1ccccc1-c1nn(-c2ccccc2)cc1C(=O)NC1CC1,,inactive: 6.18%
O=C(O)CC/C(=C\c1ccc(N2CCOCC2)c([N+](=O)[O-])c1)c1nc2ccccc2s1,active: 35.5 µM,
NC(=O)CC(NC(=O)c1ccccc1)c1ccc(NCc2ccc(F)cc2)c([N+](=O)[O-])c1 (stereo not given),,inactive: -26.3%

# Source: PubChem BioAssay AID504333 (National Center for Advancing Translational Sciences (NCATS), 2011)
